Reference: the supplement of paper PMC3334620
The full ranking holds about 33,000 sequences; the median of “E-score (-0.5 to 0.5)” is about -0.013, and the highest 2% start at about 0.3. The list shows a part of the results.

Target: T1, Msn1 (UniProt P22148)
T1 sequence: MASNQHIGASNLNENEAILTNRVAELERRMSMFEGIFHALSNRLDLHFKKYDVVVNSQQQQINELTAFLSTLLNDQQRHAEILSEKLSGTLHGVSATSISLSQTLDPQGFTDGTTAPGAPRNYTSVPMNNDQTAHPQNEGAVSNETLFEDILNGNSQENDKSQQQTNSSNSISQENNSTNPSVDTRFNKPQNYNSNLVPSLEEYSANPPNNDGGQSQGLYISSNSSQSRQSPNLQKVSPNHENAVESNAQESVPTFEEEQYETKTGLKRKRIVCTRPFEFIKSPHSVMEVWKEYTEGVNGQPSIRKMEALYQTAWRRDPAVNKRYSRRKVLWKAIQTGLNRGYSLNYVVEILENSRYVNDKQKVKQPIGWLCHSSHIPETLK
Assay: PBM E-score (8-mer binding enrichment) (E-score (-0.5 to 0.5)); higher = stronger / more preferred TF binding; most listed sequences are background and not binding sites
Conditions: protein concentration: 200 nM; construct: GST-full length
How it was run: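 GST-tagged yeast TFs (full-length or DNA-binding domain) were made by PURExpress in vitro transcription/translation and applied at about 100-200 nM to universal all-10-mer Agilent arrays. The arrays were made double-stranded by primer extension, on fresh or once-stripped slides. Bound protein was detected with fluorescent anti-GST, and scans were normalised with masliner. Each ungapped eight-base word, pooled with its reverse complement, received an E-score (modified Wilcoxon-Mann-Whitney statistic) from the Universal PBM Analysis Suite.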

| Sequence | PBM E-score |
| --- | --- |
| CTCCCCCC | -0.407 |
| TATTTACA | 0.018 |
| ATTCGGAG | 0.0972 |
| CCTTGTAG | -0.167 |
| GGGCCCGA | -0.189 |
| CATAATGA | -0.0532 |
| CGATGGTC | -0.0443 |
| CAGCAACA | 0.124 |
| AGGCACCC | -0.241 |
| CCGGGCAC | 0.0492 |
| ATCAATCG | -0.00559 |
| ACATATTG | 0.321 |
| AAGGCAGC | -0.0841 |
| CCAGAAAG | 0.024 |
| CACCCGGG | -0.134 |
| CAAGAGTG | -0.104 |
| CGTCAACA | -0.0583 |
| AGGTGATA | -0.184 |
| AGCTTAGA | 0.0964 |
| TACGAAGA | 0.0399 |
| AGCTTACT | 0.0048 |
| GGAAGGCC | -0.281 |
| GTGCAAAC | -0.063 |
| CATATGCA | 0.129 |
| CCTGCTTC | -0.172 |

| Sequence | PBM E-score |
| --- | --- |
| GTGTAGCA | -0.175 |
| ACCCAAAG | -0.00541 |
| CCTGTCCG | 0.117 |
| CGGGAGCC | -0.233 |
| ATCTCGGC | -0.0545 |
| GCCCATTA | -0.203 |
| ACAATAAG | 0.0668 |
| CAAAAAAC | 0.204 |
| GACAAACC | 0.445 |
| ACTTGGGG | -0.205 |
| GCAACTGC | 0.0155 |
| CCAGAGAA | -0.0537 |
| AATGCCCA | -0.118 |
| TACAGAGA | -0.0201 |
| CGTTCCAG | -0.136 |
| CGCCAGCC | -0.336 |
| ACACTGGC | 0.0665 |
| GGGAAGCA | -0.234 |
| CGGCGGAC | -0.0145 |
| CTTCTTGC | -0.0305 |
| ACGCCCCA | -0.14 |
| CGCGGCCG | -0.143 |
| GTGCTTCA | 0.0242 |
| AGTATAGA | 0.0581 |
| AATGTACG | 0.274 |

| Sequence | PBM E-score |
| --- | --- |
| CCTTCTAC | -0.216 |
| AAGACAAT | 0.409 |
| ACAGTTCC | 0.0691 |
| CGAGAACA | 0.0345 |
| GATATGCC | -0.0135 |
| CCGAGCAA | -0.183 |
| CAGATAGA | 0.0362 |
| CCGCACCA | -0.103 |
| CCGTGGTC | -0.245 |
| GGAAGCCA | -0.291 |
| CGTAGTGC | -0.118 |
| CCGAAACG | 0.0121 |
| ATAGGCTC | -0.101 |
| CCAAGAGC | -0.158 |
| CCGGGAGA | 0.0505 |
| GTCTTAAC | 0.224 |
| CAATTTAC | 0.149 |
| CCCCAGTA | -0.194 |
| TAAACTAA | 0.107 |
| CGAAGAAA | 0.124 |
| AGTGATCC | -0.0695 |
| ACGGGTGA | -0.0427 |
| CGTCTTCA | -0.00289 |
| GCCCACGC | -0.264 |
| AAATGTAC | 0.371 |

| Sequence | PBM E-score |
| --- | --- |
| ACGAGTCA | -0.131 |
| CATAATTC | 0.107 |
| TCACACCA | 0.0145 |
| GACGACTA | 0.0147 |
| ACACTATC | 0.0359 |
| AGCCGGTC | -0.0936 |
| CCTCTCCA | -0.254 |
| CAGAATGC | -0.094 |
| AAATTCCG | 0.291 |
| TGCCGGAA | 0.2 |
| GATCCACA | -0.0112 |
| GCTGTTTA | -0.0101 |
| AGAAGTCG | -0.0345 |
| CATGTCTA | 0.268 |
| GTGGGCTA | -0.0795 |
| CCCACCGG | -0.134 |
| GTGGATGA | -0.0859 |
| ACATGCAT | 0.164 |
| CGCCTGTA | 0.0731 |
| ATCCGGAG | 0.143 |
| AAACAATG | 0.087 |
| AATAAATG | 0.209 |
| CGGGCTGA | -0.283 |
| AGACTTAA | 0.102 |
| CGGCGAAA | 0.223 |

| Sequence | PBM E-score |
| --- | --- |
| AATCTTAA | 0.173 |
| AGAAATAA | 0.077 |
| GCCATAGA | -0.127 |
| AATGGTGA | 0.00797 |
| TACGCTGA | 0.0614 |
| ACAGGAGT | -0.102 |
| AGCACGGC | -0.0863 |
| ACTTAGAA | 0.0179 |
| GAGTCCCC | -0.357 |
| ATCCAATC | -0.0229 |
| CAGCCTGA | -0.0899 |
| CCCATAAA | -0.0692 |
| ACTTTTAC | 0.204 |
| TTATGGAA | -0.0572 |
| GTCAGAGA | 0.0303 |
| ATGCAAAC | -0.207 |
| ATTGACGA | 0.0543 |
| CGGTGTAA | -0.0479 |
| AAAGTATT | 0.153 |
| CACGCGCC | 0.0461 |
| GGTATAGA | 0.0249 |
| ATTCGATC | 0.0513 |
| ACTGAAGT | -0.0723 |
| GACAGGCA | 0.0847 |
| GTGGGTAA | -0.0702 |

| Sequence | PBM E-score |
| --- | --- |
| ATCATAAG | 0.15 |
| TAGGCCAA | 0.0699 |
| AGCCCCGA | -0.071 |
| GAGCAGGC | -0.0987 |
| GTTGGGAA | -0.00649 |
| GAACAGAC | 0.142 |
| GGGATATA | 0.0266 |
| AGCCGGGC | -0.258 |
| CGCTCAAC | -0.128 |
| AGCAGGAT | -0.0352 |
| ACCCCCGC | -0.282 |
| ACATTCGA | 0.139 |
| ATAATAAT | 0.169 |
| GGCTGCAC | -0.107 |
| GGCATTAA | -0.0574 |
| GATGCTTA | -0.0375 |
| AGTCAACC | -0.25 |
| GCGCAGAA | 0.0474 |
| AAGTATCT | 0.00333 |
| ATGTTTAC | -0.0971 |
| CACGTCAG | -0.0844 |
| ATAACTAA | 0.0832 |
| CGTAGGAG | -0.132 |
| ACTGGTCC | -0.0866 |
| GGAGGTGA | -0.0056 |

| Sequence | PBM E-score |
| --- | --- |
| TCCATCAA | 0.145 |
| AAACCTTG | -0.143 |
| CCACGAAG | -0.0733 |
| ATCCGAGC | 0.0585 |
| CTTTACCA | -0.08 |
| CCGTGCCG | -0.00474 |
| AGACTAAA | 0.115 |
| CACGCCAG | -0.286 |
| CGTACAAA | 0.356 |
| CCTGCCCG | -0.0502 |
| AGAATGTG | -0.172 |
| GTGAGATA | -0.0382 |
| GGTGTTTA | -0.00646 |
| GAGCAAGA | 0.0122 |
| CAGCCTCG | 0.0786 |
| CCGAGAGG | -0.0358 |
| GTTCGGGA | 0.199 |
| CAGAAGAG | -0.172 |
| ACTATCTA | 0.13 |
| ATTCCGTG | 0.117 |
| AAATTTGT | 0.363 |
| GAGAAGAC | -0.162 |
